{"source": "PubChem BioAssay AID1362", "about": "(SRMLSC, 2008)", "note": "Some of the results follow. The main result of the screen is listed elsewhere. These columns were measured beside it and carry no call. Compounds called inactive in the main read-out are mostly missing here."}
{"experiment": "growth inhibition of WT strain, primary screen, mitochondrial fusion inhibitor project, WT and mutant strains, chemical genetic (AID 1362); also: tested in S. cerevisiae", "settings": "mitochondrial fusion phenotypic screen, at 10 µM", "units": {"inhibition": "%"}}
{"molecule": "CCOC(=O)CSc1c(-c2cccs2)[nH]c2ccccc12", "inhibition": 15.5}
{"molecule": "CCC(=O)Nc1ccc(-c2nnc(SCc3ccc(C(=O)Nc4nccs4)cc3)n2CC)cc1", "inhibition": 8.88}
{"molecule": "CCc1nnc(NC(=O)c2ccc(S(=O)(=O)N(CC)Cc3ccccc3)cc2)o1", "inhibition": 53.5}
{"molecule": "CC(C)(C)C(=O)NC(=S)NNC(=O)c1sc2ccccc2c1Cl", "inhibition": 63.7}
{"molecule": "c1ccc(N(c2ccccc2)c2nc(-n3ccnc3)nc(-n3ccnc3)n2)cc1", "inhibition": 96.4}
{"molecule": "CC(C)CCn1c(N2CCN(c3cccc(Cl)c3)CC2)nc2c1c(=O)[nH]c(=O)n2C", "inhibition": 35.6}
{"molecule": "O=C(NCc1ccccc1)c1cccc(COc2cccc(Cl)c2)c1", "inhibition": 31.3}
{"molecule": "CCCCCc1ccc(OCCCC[n+]2ccccc2)c(CCCCC)c1", "inhibition": 85.8}
{"molecule": "CC(NC(=O)c1ccc(Br)cc1)c1ccc2c(c1)CCCC2", "note": "(stereo not given)", "inhibition": 37.2}
{"molecule": "O=C(COc1ccc(Cl)cc1Cl)NNC(=S)NCc1ccco1", "inhibition": 33.5}
{"molecule": "CCN1CCc2nc(NC(=O)c3ccccc3)sc2C1", "inhibition": 19}
{"molecule": "CCN1CCN(c2ccc(NC(=O)c3ccc4c(c3)OCO4)cc2)CC1", "inhibition": -3.63}
{"molecule": "CCO[C@H]1OC(C(=O)Nc2ccccc2)=C[C@@H](c2ccc(Br)cc2)[C@@H]1CCCO", "inhibition": 49.9}
{"molecule": "COc1ccc(C(N)=O)cc1NC(=O)c1cccc(F)c1", "inhibition": 27.1}
{"molecule": "COC(=O)/C(=C(/F)Sc1cc(C)c(O)c(C)c1)C(F)(F)F", "inhibition": 47.4}
{"molecule": "CC(C)c1ccc(S(=O)(=O)Nc2ccc(SC(F)F)cc2)cc1", "inhibition": 82.3}
{"molecule": "N#C/C(=N\\Nc1cccc(Cl)c1)C(=O)c1ccccc1", "inhibition": 66.6}
{"molecule": "Cc1onc(-c2c(F)cccc2Cl)c1C(=O)Nc1sc2c(c1C(N)=O)CCC2", "inhibition": 40.1}
{"molecule": "Cc1ccccc1NC1=C/C(=N\\S(=O)(=O)c2cccs2)c2ccccc2C1=O", "inhibition": 63.2}
{"molecule": "CCOC1(OCC)C(c2ccc(Cl)cc2)C(C#N)(C#N)C1(OCC)OCC", "note": "(stereo not given)", "inhibition": -24.2}
{"molecule": "CSc1nc(N2CCN(c3ccccc3Cl)CC2)c2ccccc2n1", "inhibition": 39.5}
{"molecule": "Clc1cccc(NCc2nnc(SCc3ccc(Cl)cc3Cl)o2)c1", "inhibition": 9.8}
{"molecule": "O=[N+]([O-])c1ccc(C[n+]2cccc3ccc4cccnc4c32)cc1", "inhibition": 49.6}
{"molecule": "Cc1nc(CS(=O)c2ccc(Cl)cc2)cc(NCc2ccc(Cl)cc2Cl)n1", "note": "(stereo not given)", "inhibition": 29.3}
{"molecule": "COc1ccc(S(=O)(=O)N2c3ccccc3OCC2C(C)(C)C)cc1", "note": "(stereo not given)", "inhibition": -2.75}
{"molecule": "COc1ccc(C(=O)C[n+]2cn(C(F)F)c3ccccc32)c(F)c1", "inhibition": 60.2}
{"molecule": "FC(F)(F)c1cc(-c2ccccc2)nc(NCc2cccs2)n1", "inhibition": 16.6}
{"molecule": "CCn1nc(C)c(C(=O)Nc2cc(Oc3cc(C)cc(C)c3)cc([N+](=O)[O-])c2)c1C", "inhibition": 23.3}
{"molecule": "CCN(CC)CCN(C(=O)c1c(F)cccc1F)c1nc2cc(C)cc(C)c2s1", "inhibition": 56.2}
{"molecule": "S=c1nc(-c2sccc2OCc2ccc(Cl)cc2Cl)[nH][nH]1", "inhibition": 18.9}
{"molecule": "CC(=O)NC/C(C)=N\\Nc1ccc([N+](=O)[O-])cc1", "inhibition": 63.7}
{"molecule": "N#C/C(=N\\Nc1cccc([N+](=O)[O-])c1)C(=O)c1ccc(Br)cc1", "inhibition": 65.7}
{"molecule": "CC(C)CC(=O)NC(=S)N(Cc1ccccc1)Cc1ccccc1", "inhibition": -8.44}
{"molecule": "Cc1ccc(C(=O)Nc2nc(-c3ccccc3)c(-c3ccccc3)o2)cc1", "inhibition": 8.01}
{"molecule": "O=C(Nc1ncc2c(n1)CC(c1ccco1)CC2=O)c1ccccc1", "note": "(stereo not given)", "inhibition": -2.75}
{"molecule": "Cc1ccc(C(=O)NC(=S)Nc2ccccc2C(F)(F)F)cc1C", "inhibition": 59.8}
{"molecule": "Cc1ccc(NC(=S)NCCC2=CCCCC2)cc1", "inhibition": 66.8}
{"molecule": "O=C(Nc1cccc(S(=O)(=O)Nc2ccccc2F)c1)c1ccc2ccccc2n1", "inhibition": 73.7}
{"molecule": "CC(C)N(C(=S)NC1CC2CCC1C2)c1ccccc1", "note": "(stereo not given)", "inhibition": 4.45}
{"molecule": "Clc1cncc(Cl)c1NNc1c2ccccc2nc2ccccc12", "inhibition": 21.5}
{"molecule": "C#CCn1cnc2c(cnn2-c2ccc(C)c(C)c2)c1=O", "inhibition": 16.3}
{"molecule": "CC12CC3(C)CC(C)(C1)CC(C(=O)NC(=S)NC(C)(C)C)(C2)C3", "inhibition": -11.9}
{"molecule": "COc1ccc2c(C)nc(Nc3nc(C)c(C)c(=O)[nH]3)nc2c1", "inhibition": 60.3}
{"molecule": "CN1CCN(C(=S)c2cn(Cc3ccc(Br)cc3)c3ccccc23)CC1", "inhibition": 46.5}
{"molecule": "Cc1ccc(Nc2nc(NCc3ccco3)c3ccccc3n2)cc1", "inhibition": 90.1}
{"molecule": "CC(C)c1ccc(Nc2nc(NCc3ccco3)nc(N3CCOCC3)n2)cc1", "inhibition": 26.5}
{"molecule": "Cc1nn(Cc2ccc(Cl)cc2Cl)c(C)c1NC(=O)NC12CC3CC(CC(C3)C1)C2", "inhibition": 28.1}
{"molecule": "C1CCN=C(Nc2nc3c(s2)CCCC3)CC1", "inhibition": 2.23}
{"molecule": "CC(=O)c1ccc(OC(=O)CCN2c3ccccc3Sc3ccccc32)cc1", "inhibition": 18.7}
{"molecule": "COc1ccc(NC(=S)N(Cc2ccccn2)Cc2ccccc2Cl)cc1", "inhibition": 45.7}
{"molecule": "Cc1ccc(CSc2nc3ccsc3c(=O)n2Cc2ccccn2)cc1", "inhibition": 18.1}
{"molecule": "Cc1ccc(C)c(NC(=O)c2ccccc2C(=O)c2ccccc2)c1", "inhibition": 12.1}
{"molecule": "CC(C)(C)C(=O)Cn1c(=N)n(Cc2ccccc2)c2ccccc21", "inhibition": 35.5}
{"molecule": "Cc1cc(SCC(=O)NCCC2=CCCCC2)nc2ccccc12", "inhibition": 35.3}
{"molecule": "N/C(=N\\OC(=O)COc1ccc2ccccc2c1Br)c1ccccn1", "inhibition": 55.6}
{"molecule": "CNc1cc(CSC)nc(SCc2ccc(Cl)cc2Cl)n1", "inhibition": 80.2}
{"molecule": "Cc1ccc(CC2SC(=Nc3ccccc3)N(c3ccccc3)C2=O)cc1", "note": "(stereo not given)", "inhibition": -7.37}
{"molecule": "Oc1ccc(/C=N/Nc2nc(N3CCCCCC3)nc(N3CCCCCC3)n2)c(O)c1", "inhibition": 5.48}
{"molecule": "CCc1ccc(Nc2nc(N)nc(CSc3nc4ccccc4s3)n2)cc1", "inhibition": 25.5}
{"molecule": "CCOc1ccc(OCC)c(S(=O)(=O)NCCOC23CC4CC(CC(C4)C2)C3)c1", "inhibition": 3.53}
{"molecule": "CC1C/C(=C/c2ccncc2)C(=O)/C(=C/c2ccncc2)C1", "note": "(stereo not given)", "inhibition": 72.3}
{"molecule": "O=S(=O)(Nc1ccc(N=Nc2ccc(O)c3ccccc23)cc1)c1ccccc1", "inhibition": 27.7}
{"molecule": "CCCCCCCCCS(=O)(=O)N/N=C/c1cccc([N+](=O)[O-])c1", "inhibition": 42.7}
{"molecule": "Clc1ccc2oc(-c3ccccc3)cc(=NCCCN3CCOCC3)c2c1", "inhibition": 46}
{"molecule": "Cc1cc(N2CCN(S(=O)(=O)c3ccc(Cl)c(Cl)c3)CC2)c2ccccc2n1", "inhibition": 61.5}
{"molecule": "Cc1ccc(Nc2nc3nonc3[nH]c2=O)cc1Cl", "inhibition": 19.6}
{"molecule": "CCOC(=O)c1c(C)oc2c1c(C(c1cccnc1)N1CCCCC1)c(O)c1ccccc12", "note": "(stereo not given)", "inhibition": 25.6}
{"molecule": "CN1CCN(c2nc(-c3cccnc3)nc3ccccc23)CC1", "inhibition": 13.6}
{"molecule": "COc1ccc2cnn(CCOc3cc(C)ccc3C(C)C)c(=O)c2c1OC", "inhibition": 43.7}
{"molecule": "O=C(Nc1nnc(SCc2ccccc2Cl)s1)C1COc2ccccc2O1", "note": "(stereo not given)", "inhibition": 21.1}
{"molecule": "COCCN(C(=O)Cc1cccs1)C(C(=O)NCc1ccc(OC)cc1)c1ccc(C(C)C)cc1", "note": "(stereo not given)", "inhibition": 22.7}
{"molecule": "Cc1noc2ncnc(N3CCN(c4cccc(Cl)c4)CC3)c12", "inhibition": 23.5}
{"molecule": "Cc1ccc(S(=O)(=O)CC(=O)Nc2nc(-c3ccccc3)cs2)cc1", "inhibition": 44.3}
{"molecule": "Nc1[nH]n2c(=O)c3c(nc2c1N=Nc1ccccc1)CCCC3", "inhibition": 9.8}
{"molecule": "Cc1cc(N/N=C/c2cccc(Cl)c2)nc(NCc2ccccc2)n1", "inhibition": 81.2}
{"molecule": "Cc1sc2nc3c4ccccc4c(NCc4ccco4)nn3c(=O)c2c1C", "inhibition": 10.6}
{"molecule": "CCOC(=O)c1c(NC(=O)C(C)N2CCN(C(=O)c3ccco3)CC2)sc2c1CCCC2", "note": "(stereo not given)", "inhibition": -13.8}
{"molecule": "CC(C)(C)C(=O)/C(=C/c1cccc([N+](=O)[O-])c1)n1cncn1", "inhibition": 41.4}
{"molecule": "O=c1cc(/C=C/c2ccccc2)oc2c1ccc1ccccc12", "inhibition": 52.6}
{"molecule": "CCC(Sc1nnnn1-c1ccccc1)C(=O)Nc1nc2ccccc2s1", "note": "(stereo not given)", "inhibition": 35.9}
{"molecule": "COC(=O)c1ccc(CSc2nc3ccccc3c(=O)n2CC(C)C)o1", "inhibition": 3.82}
{"molecule": "N#C/C(=C\\c1ccccn1)c1nc2ccccc2s1", "inhibition": 48.6}
{"molecule": "Cc1cccc2cc(-c3ccccc3)c(-c3ccccc3)c[n+]12", "inhibition": 56.7}
{"molecule": "C=CCNC(=S)N(C1CCCCC1)C1CCCCC1", "inhibition": 63.1}
{"molecule": "COc1cccc(N/C(C)=C/C(=O)c2ccc(Br)cc2)c1", "inhibition": 44}
{"molecule": "CCN1C/C(=C\\c2cccc([N+](=O)[O-])c2)C(=O)/C(=C/c2cccc([N+](=O)[O-])c2)C1", "inhibition": 33}
{"molecule": "CC(NC(=O)Cn1ncc(Cl)c(Cl)c1=O)C12CC3CC(CC(C3)C1)C2", "note": "(stereo not given)", "inhibition": 44.3}
{"molecule": "CCCCC(c1nnnn1CC1CCCO1)N1CCN(c2cc(Cl)ccc2C)CC1", "note": "(stereo not given)", "inhibition": 5.73}
{"molecule": "C(=N\\N1CCN(C2c3ccccc3-c3ccccc32)CC1)/c1ccccn1", "inhibition": 45.9}
{"molecule": "CC(NC(=S)NCc1ccc(F)cc1)C12CC3CC(CC(C3)C1)C2", "note": "(stereo not given)", "inhibition": 57}
{"molecule": "Cc1cccc(N2CCN(C(c3ccccc3)c3nnnn3C(C)(C)C)CC2)c1C", "note": "(stereo not given)", "inhibition": 13.9}
{"molecule": "O=C(Cc1c(O)c2ccccc2[nH]c1=O)NCc1ccccc1F", "inhibition": 7.59}
{"molecule": "Cc1ccc(-n2cccc2/C=C2\\C(=N)N3N=C(C(C)C)SC3=NC2=O)cc1", "inhibition": 30.1}
{"molecule": "CC(C)CNC(=S)N1CCN(C(c2ccccc2)c2ccccc2)CC1", "inhibition": 19.7}
{"molecule": "CN(c1ccc(O)cc1)c1nc(-c2cccs2)cs1", "inhibition": 24.8}
{"molecule": "CCOC(=O)c1oc2cccc(OCC(O)CNC(C)C)c2c1C", "note": "(stereo not given)", "inhibition": 15.8}
{"molecule": "Fc1cccc(NC(=S)NNc2c3ccccc3nc3ccccc23)c1", "inhibition": 31.2}
{"molecule": "Cc1ccc(C2NC(c3ccc(C)cc3)C(C)C(=NO)C2C)cc1", "note": "(stereo not given)", "inhibition": 73.7}
{"molecule": "CNc1nc(SCc2ccc(C)cc2)nc2c1CCCC2", "inhibition": 65.8}
{"molecule": "c1csc(C(c2nnnn2C2CCCCC2)N2CCCC3(CCCCC3)C2)c1", "note": "(stereo not given)", "inhibition": 5.87}
{"molecule": "NNc1nc(-c2ccccc2)cc(-c2ccccc2)n1", "inhibition": 56.5}
{"molecule": "O=C(c1cnn2c(C(F)F)cc(-c3ccccc3)nc12)N1CCc2ccccc2C1", "inhibition": 70.5}
{"molecule": "CCC(C)Sc1nc2c(c(=O)n1C)SC(C)C2", "note": "(stereo not given)", "inhibition": 16.5}
{"molecule": "CCOC(=O)c1ccc(Oc2nc(NC(C)(C)C)nc(N(C)C)n2)cc1", "inhibition": 19.3}
{"molecule": "O=C(Nc1ccccc1)c1ccc(-c2ccc(Br)cc2)o1", "inhibition": 67.2}
{"molecule": "CCc1ccccc1NC(=S)N(Cc1cccs1)C1CCCC1", "inhibition": 36.5}
{"molecule": "COc1ccc(C(C)(C)C)cc1NC(=O)c1ccoc1C", "inhibition": 61.7}
{"molecule": "CCCN(CC(=O)Nc1cc(Cl)cc(Cl)c1)CC(=O)Nc1ccc(F)c(F)c1F", "inhibition": 35}
{"molecule": "CC1CCCCC1n1c(=S)[nH]c2ccccc2c1=O", "note": "(stereo not given)", "inhibition": 54.9}
{"molecule": "O=C(Nc1ccc(-c2nc3ccccc3[nH]2)cc1)C1CCCO1", "note": "(stereo not given)", "inhibition": 66.3}
